# Hit rate of the full screen: of about 310,000 compounds, about 18,000 (5.8%) were called active. This list was built around the results that the source calls inconclusive (neither active nor inactive); the mix of calls is not that of the screen. Calls follow the shape of the dose curve; as a rule, active = well fitted inhibition curve with a large enough effect; inconclusive = small, poorly fitted or top-dose-only effect, or another doubt; inactive = no such curve, though single readings can be large or run the other way. No potency is given beside an inconclusive call; the fits are too rough.
# Experiment: Primary qHTS for delayed death inhibitors of the malarial parasite plastid, 48 hour incubation
# Details: P. falciparum luciferase growth in erythrocytes; series mostly up to 28.7 µM
# Procedure, shortened: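 Parasite viability was followed by luminescence of a genomically integrated firefly luciferase. Cultures held 0.1% parasitemia at 2% hematocrit (final), incubated under 5% CO2 at 37 C.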
# Potency is read from the fitted curve at half-maximal effect; tags tell the direction and shape of the fitted curve.
row,Compound,Potency
1,Cn1c(N/N=C/c2ccccc2)nc2sc3c(c2c1=O)CCC3,"inconclusive [inhibitor, single point]"
2,Cc1ccc(C)c(NC(=O)CCN2CC(C)OC(C)C2)c1 (stereo not drawn),"inconclusive [inhibitor, full curve, poor fit]"
3,CC(=O)C(Cc1ccccc1)NC(=O)CCl (stereo not drawn),"inconclusive [inhibitor, partial curve, poor fit]"
4,O=C(NCCc1c[nH]c2ccccc12)C(=O)NCC1OCCN1S(=O)(=O)c1cc(F)ccc1F (stereo not drawn),"inconclusive [inhibitor, single point]"
5,CCOC(=O)N1CCN(Cc2nc3c(c(=O)n(C)c(=O)n3C)n2Cc2ccc(F)cc2)CC1,"inconclusive [inhibitor, single point]"
6,COc1cc(NC(=O)c2ccc(COc3ccccc3Br)o2)cc(OC)c1OC,"inconclusive [inhibitor, partial curve]"
7,COc1cccc(CNC(=O)C2CCN(S(=O)(=O)c3ccc4c(c3)CC(C)N4C(C)=O)CC2)c1 (stereo not drawn),"inconclusive [inhibitor, partial curve]"
8,O=C1N=c2ccccc2=C1c1sc(Nc2cccc(O)c2)nc1O,inactive
9,CC(C)(C)c1cnnn1-c1ccc(NC(=O)c2ccc(Br)o2)cc1,active: 10.4 µM
10,Cc1ccc(C)c(N2CC(C(=O)Nc3cc(C)on3)CC2=O)c1 (stereo not drawn),inactive
11,C=CCn1c(-c2ccc(OC)c(OC)c2)cs/c1=N\c1ccccn1,"inconclusive [inhibitor, single point]"
12,CC(C)Cc1nc2oc3c(NCC(C)O)ncnc3c2c2c1CCCC2 (stereo not drawn),"inconclusive [inhibitor, partial curve]"
13,COc1cc(OC)cc(-c2nnc(SCC(=O)N(C(C)C)C(C)C)o2)c1,active: 7.38 µM
14,CCC/C=N/NC(=O)C1COc2ccccc2O1 (stereo not drawn),"inconclusive [inhibitor, full curve, poor fit]"
15,O=C(CCCCCn1c(=S)[nH]c2cc3c(cc2c1=O)OCO3)N1CCN(C2CCCCC2)CC1,"inconclusive [inhibitor, single point]"
16,CN(Cc1ccccc1)c1nc2c(c(=O)[nH]c(=O)n2C)n1CCOc1ccccc1,active: 9.28 µM
17,O=C(/C=C/c1c(F)cccc1Cl)c1ccc(F)cc1,"inconclusive [inhibitor, full curve]"
18,COc1ccc(-c2cc3ccccc3n2CC(O)Cn2nc(C)cc2C)cc1 (stereo not drawn),active: 2.33 µM
19,O=C(CN1C(=O)COc2ccccc21)N(Cc1ccc2c(c1)OCO2)CC1CCCO1 (stereo not drawn),"inconclusive [inhibitor, partial curve, poor fit]"
20,Cc1ccc(SC[C@H](c2ccccc2)N2CCN(CC(C)C)CCC2=O)cc1,"inconclusive [inhibitor, single point]"
21,Cc1ccc(NC(=O)Cn2cc(C(F)(F)F)cc(Cl)c2=O)cc1Cl,inactive
22,COc1ccc(C(CNS(=O)(=O)c2ccc(F)cc2)N2CCN(C)CC2)cc1 (stereo not drawn),inactive
23,Cc1cc(C)c(C)c(SCC(=O)Nc2oc(C)c3c(C)n[nH]c(=O)c23)c1C,"inconclusive [inhibitor, partial curve, poor fit]"

row,Compound,Potency
1,CCn1c(/C=C/c2c[nH]c3ccccc23)nc2ccccc2c1=O,inactive
2,O=C(Nc1nc(NC(=O)c2ccco2)n(-c2ccccc2)n1)c1ccccc1,"inconclusive [inhibitor, single point]"
3,Cc1cc(C)n(-c2nc3sc4c(c3c(=O)[nH]2)CCCC4)n1,"inconclusive [inhibitor, partial curve]"
4,Cn1cnnc1Sc1cc(N2CCN(S(=O)(=O)c3ccc4ccccc4c3)CC2)ccc1[N+](=O)[O-],"inconclusive [inhibitor, partial curve]"
5,O=C(Cn1ncc(Cl)c(Cl)c1=O)N1CCOCC1,"inconclusive [inhibitor, single point]"
6,Cc1occc1C(=O)N1CCCC(N2CCN(c3ccccc3F)CC2)C1 (stereo not drawn),"inconclusive [inhibitor, single point]"
7,Cc1ccc(C(C(=O)NC2CCCCC2)N2CCOCC2)cc1 (stereo not drawn),inactive
8,C/C=C/C=C/C(=O)N1CC[C@]23c4ccccc4N[C@H]4N(C)c5cccc6c5[C@]42CCN([C@H]6C2OC2(C)C)[C@H]13 (stereo partly drawn),active: 11.7 µM
9,CCOc1cc2[nH]c(=S)n(Cc3ccc(C(=O)NCCCN4CCOCC4)cc3)c(=O)c2cc1OCC,"inconclusive [inhibitor, full curve]"
10,CC(C)(C)c1ccc(OCC(=O)N2CCCCCC2)c(Br)c1,inactive
11,COc1cc(CCNc2ccc3nnc(-c4ccccc4)n3n2)cc(OC)c1OC,"inconclusive [inhibitor, partial curve]"
12,CCCCNC(=O)c1onc(CS(=O)(=O)c2ccccn2)c1C(=O)NCCCC,"inconclusive [inhibitor, single point]"
13,CC1NC(=O)NC1CCCCCC(=O)Nc1ccc(F)c(Cl)c1 (stereo not drawn),"inconclusive [inhibitor, full curve, poor fit]"
14,O=C(/C=C/c1ccco1)Nc1ccccc1N1CCCCC1,"inconclusive [inhibitor, single point]"
15,Cc1cc(C)n(CCNC(=O)C2CCC(=O)N(Cc3ccc(Cl)cc3)C2)n1 (stereo not drawn),inactive
16,c1cnc2ccc(C(c3nnnn3C3CCCCC3)N3CCCCC3)cc2c1 (stereo not drawn),"inconclusive [inhibitor, partial curve]"
17,N#C/C(=N\Nc1cccc(C(F)(F)F)c1)C(=O)c1csc(-c2cccnc2)n1,"inconclusive [inhibitor, partial curve]"
18,CC(C)n1c(/C=C/c2ccccc2)nc2ccccc21,inactive
19,COc1ccc(-c2csc(N(CCCN(C)C)C(=O)c3ccc(C)cc3)n2)cc1,active: 8.28 µM
20,CCOC(=O)N1CCC(NC(=O)Cn2cccc2C(=O)c2ccccc2C)CC1,"inconclusive [inhibitor, single point]"
21,CN(C)/N=C/c1ccc(OS(=O)(=O)c2ccccc2)cc1,inactive
22,N=c1sccn1CC(=O)Nc1cccc(Oc2ccccc2)c1,"inconclusive [inhibitor, partial curve, poor fit]"
23,CCOc1ccc(N2CC(C(=O)Nc3ccc(OC)c(S(=O)(=O)N4CCCCC4)c3)CC2=O)cc1 (stereo not drawn),"inconclusive [inhibitor, partial curve, poor fit]"

row,Compound,Potency
1,O=C(Nc1ccc(O)cc1)c1ccccc1OCc1ccccc1,"inconclusive [inhibitor, single point]"
2,COc1ccccc1-n1c(CNC(=O)c2ccco2)nnc1SCC(=O)Nc1cc(C)ccc1C,"inconclusive [inhibitor, single point]"
3,O=C(NC1CCCC1)C1CC1c1ccccc1 (stereo not drawn),"inconclusive [inhibitor, full curve, poor fit]"
4,CS(=O)(=O)N(CC(=O)Nc1ccccc1Sc1ccccc1)c1ccc(F)cc1,"inconclusive [inhibitor, full curve]"
5,COc1ccc(/C=C2\SC(=S)N(CCCC(=O)Nc3ccccn3)C2=O)cc1OC,"inconclusive [inhibitor, partial curve, poor fit]"
6,O=C(NCCCSc1ccccc1)c1cc(Cl)ccc1O,"inconclusive [inhibitor, partial curve]"
7,O=C(Cc1ccsc1)N1CCc2c([nH]c3ccccc23)C1c1ccccn1 (stereo not drawn),"inconclusive [inhibitor, partial curve]"
8,CC1=NN(/C(=N\c2nnc(C)s2)Nc2ccccc2)[C@H](c2cccc3ccccc23)S1,active: 6.57 µM
9,CCc1ccc(NC(=S)NC(=O)c2c(-c3ccccc3Cl)noc2C)cc1,active: 11.7 µM
10,COc1cc2nc(CN3CCN(S(=O)(=O)c4ccc(C)c(C)c4)CC3)[nH]c(=O)c2cc1OC,active: 9.28 µM
11,CC(=O)c1ccc(NC(=O)c2ccc(S(=O)(=O)N3CCCC3)cc2)cc1,"inconclusive [inhibitor, partial curve]"
12,COc1ccccc1NC(=O)c1ccccc1Nc1ccccc1,active: 5.22 µM
13,COc1ccccc1CNC(=O)CCNS(=O)(=O)c1ccc2[nH]c(=O)oc2c1,"inconclusive [inhibitor, full curve, poor fit]"
14,CCC(NC(C)C)C(O)c1ccc(O)c2[nH]c(=O)ccc12 (stereo not drawn),"inconclusive [inhibitor, partial curve, poor fit]"
15,COc1cc(OC)c(NC(=O)c2ccoc2C)cc1Cl,inactive
16,Cn1cc(CN2CCCCC2CO)c(-c2ccc(Oc3ccccc3)cc2)n1 (stereo not drawn),"inconclusive [inhibitor, partial curve, poor fit]"
17,CN1c2ccc([N+](=O)[O-])cc2CC2(C(=O)NC(=O)N(c3ccc(Br)cc3)C2=O)C1c1ccccc1 (stereo not drawn),active: 1.65 µM
18,Cc1cc(C)nc(SCc2cnc(C)nc2N)n1,"inconclusive [inhibitor, single point]"
19,N#CC1=C(N)OC2=C(CCc3ccccc32)C1c1ccccc1 (stereo not drawn),active: 11.7 µM
20,Cc1ccc(C(CCN(Cc2ccccc2)C(=O)c2ccco2)c2ccco2)cc1 (stereo not drawn),"inconclusive [inhibitor, single point]"
21,COc1ccc(NC(=S)N2CCCN(Cc3cc(C)ccc3C)C2)cc1,active: 10.4 µM
22,O=c1c2cc3c(cc2[nH]c(=S)n1Cc1ccco1)OCO3,inactive
